Experimental data published in PubChem BioAssay AID1508623 (National Center for Advancing Translational Sciences (NCATS), 2021).
In all, about 48,000 compounds went through this assay and about 450 (0.94%) were called active. Another 19% or so got no clear call; they are omitted. The call rests on the fitted dose curve; in most records, active means well fitted inhibition curve with a large enough effect; inconclusive means small, poorly fitted or top-dose-only effect; inactive means no such curve, though single readings can be large or run the other way. This is one part of the list.

assay: Primary qHTS for Identification of Small Molecule Inhibitors of Huntingtin Promoter Activity; settings: HEK293 HTT promoter firefly luciferase reporter (activity 0% = vehicle and -100% = no light), 24 h; series mostly up to 57.5 µM; activity change, negative = inhibition: at the top concentration; further: nearly all actives have a fitted effect of over 50% in size
In short: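 Firefly luciferase signal from promoter-reporter HEK293 cells was scaled between vehicle (0%) and zero RLU (-100%). Compounds were tested at final concentrations of up to 57.5 uM over 24 h at 37 degrees C. PTC124 at 50 uM final served as control inhibitor.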

Q: With `COCCCN(Cc1ccco1)C(=O)c1cc2c(s1)-c1ccccc1OC2` as the compound, how does the “activity change, negative = inhibition” value read?
A: inactive: -15.6%

Q: With `CCOC(=O)C1CCN(c2nc3c(S(=O)(=O)c4ccc(Br)cc4)nnn3c3ccsc23)CC1` as the compound, how does the “activity change, negative = inhibition” value read?
A: inactive: -0.883%

Q: For `FC(F)(F)c1cccc(-n2cc(-c3ccccc3)c3c(N4CCCCC4)ncnc32)c1`, which “activity change, negative = inhibition” value is on record?
A: inactive: -9.44%

Q: Which “activity change, negative = inhibition” value does the source give for `COc1ccc(CCNC(=O)Cn2cc(C(=O)c3ccc(Cl)cc3)c(=O)c3ccc(C)nc32)cc1OC` here?
A: inactive: 7.48%

Q: Which “activity change, negative = inhibition” value does the source give for `COc1ccccc1CNC(=O)CN1C(=O)CCc2cc(S(=O)(=O)N3CCCCC3)ccc21` here?
A: inactive: 5.04%

Q: For `CCCN(CCC)CCNC(=O)Cn1cnc2sc(C)c(S(=O)(=O)N3CCC(C)CC3)c2c1=O`, which “activity change, negative = inhibition” value is on record?
A: inactive: -16.4%

Q: Which “activity change, negative = inhibition” value does the source give for `COCCN1C(=O)c2oc3cc(C)cc(C)c3c(=O)c2C1c1cccc(O)c1` (stereo unspecified) here?
A: inactive: -21.3%

Q: With `COc1ccc(S(=O)(=O)N(CCc2ccccc2)CC(=O)NCc2ccccc2)cc1` as the compound, how does the “activity change, negative = inhibition” value read?
A: inactive: -32.6%

Q: Which “activity change, negative = inhibition” value does the source give for `CCOC(=O)c1cccc(NC(=O)Cn2nc3c(cc2=O)CCCC3)c1` here?
A: inactive: -4.99%

Q: Which “activity change, negative = inhibition” value does the source give for `Cc1ccc(N2CC(C(=O)NCCS(=O)(=O)N3CCN(c4ccccc4)CC3)CC2=O)cc1` (stereo unspecified) here?
A: inactive: -12.6%

Q: For `Cc1ccc(-c2c(CN3CCN(c4cc(C)ccc4C)CC3)csc2C)cc1`, which “activity change, negative = inhibition” value is on record?
A: inactive: -5.53%

Q: With `Cc1c(C(=O)NC(C)c2ccccc2)sc2ncnc(N(C)C3CCCCC3)c12` (stereo unspecified) as the compound, how does the “activity change, negative = inhibition” value read?
A: inactive: -22.4%

Q: Which “activity change, negative = inhibition” value does the source give for `CCCn1cc(S(=O)(=O)c2cccc(Cl)c2)c(=O)c2cc(F)c(N3CCOCC3)cc21` here?
A: inactive: -20.4%

Q: With `CCN(CC)C(=O)CSc1nnc2ccc3ccccc3n12` as the compound, how does the “activity change, negative = inhibition” value read?
A: inactive: 15.9%

Q: With `CCc1ccccc1NC(=O)CN1C(=O)CCn2nc(-c3cccn3C)cc21` as the compound, how does the “activity change, negative = inhibition” value read?
A: inactive: 7.83%

Q: Which “activity change, negative = inhibition” value does the source give for `COc1ccc(-c2cn3c(n2)sc2cc(C(=O)Nc4ccc(C)c(Cl)c4)ccc23)cc1` here?
A: inactive: 20.4%

Q: For `COC(=O)c1ccc(NC(=O)n2ncc3c(C)cccc32)cc1`, which “activity change, negative = inhibition” value is on record?
A: inactive: 9.48%

Q: Which “activity change, negative = inhibition” value does the source give for `CCOC(=O)c1[nH]c2c(c1Cc1ccccc1C)C(=O)CC(c1ccccc1)C2` (stereo unspecified) here?
A: inactive: 2.56%

Q: With `Cc1c(C(=O)N2CCCCCC2)c(S(=O)(=O)Nc2cccc(C#N)c2)c(C)n1C` as the compound, how does the “activity change, negative = inhibition” value read?
A: inactive: 4.38%

Q: For `CC1(C)N=C(SCc2ccc(Cl)cc2)c2ccccc2N1`, which “activity change, negative = inhibition” value is on record?
A: inactive: 3.05%

Q: With `O=C(NCCc1ccccc1)C(=O)NCC(c1cccs1)S(=O)(=O)c1cccs1` (stereo unspecified) as the compound, how does the “activity change, negative = inhibition” value read?
A: inactive: -31.9%

Q: With `Cc1cc(=O)[nH]c2nnc(SCc3ccccc3F)n12` as the compound, how does the “activity change, negative = inhibition” value read?
A: inactive: -26.9%

Q: With `Cn1c(=O)cc(SCC(=O)NCc2ccc(F)cc2)c2cc(Cl)ccc21` as the compound, how does the “activity change, negative = inhibition” value read?
A: inactive: -10.7%

Q: For `Cc1ccc(S(=O)(=O)N2CCN(Cc3cc(=O)n4nc(-c5ccccc5Cl)sc4n3)CC2)cc1`, which “activity change, negative = inhibition” value is on record?
A: inactive: -6.19%

Q: For `CCOC(=O)c1c(C)[nH]c(C)c1S(=O)(=O)N1CCC(C(=O)Nc2ccccc2CC)CC1`, which “activity change, negative = inhibition” value is on record?
A: inactive: -20.1%

Q: With `Cn1c(=O)c(=O)n(C)c2cc(NS(=O)(=O)c3ccc(Br)cc3)c(Cl)cc21` as the compound, how does the “activity change, negative = inhibition” value read?
A: inactive: -15.7%

Q: For `CCc1ccc(-n2nc(CO)c(C(=O)NCc3ccccc3Cl)n2)cc1`, which “activity change, negative = inhibition” value is on record?
A: inactive: 0.139%

Q: Which “activity change, negative = inhibition” value does the source give for `COc1ccc(NC(=O)N2CCCn3nc(C)cc32)cc1OC` here?
A: inactive: -1.33%

Q: With `CCCCNC(=O)CSc1nc2cc3c(cc2c(=O)n1Cc1ccc(C(=O)NCCc2ccc(OC)c(OC)c2)cc1)OCO3` as the compound, how does the “activity change, negative = inhibition” value read?
A: inactive: -10.8%

Q: For `O=C(CCC(=O)N1Cc2ccccc2Oc2ncccc21)NCc1cccc(Cl)c1`, which “activity change, negative = inhibition” value is on record?
A: inactive: -4.54%

Q: For `COc1ccc(Cc2nc3ccccc3n2Cc2ccccc2C)cc1`, which “activity change, negative = inhibition” value is on record?
A: inactive: -15.2%

Q: With `O=C(NCc1cccc(Cl)c1)c1ccc(NC(=O)N2CCSc3ccccc32)cc1` as the compound, how does the “activity change, negative = inhibition” value read?
A: inactive: -14%

Q: With `Cc1ccc(Cc2c(C)nc3nc(SCC(=O)NCCC(C)C)nn3c2C)cc1` as the compound, how does the “activity change, negative = inhibition” value read?
A: inactive: -6.65%

Q: Which “activity change, negative = inhibition” value does the source give for `CNC(=O)Nc1ccc(-c2nc(N3CC4CCC(C3)O4)c3cnn(C4CCC5(CC4)OCCO5)c3n2)cc1` here?
A: inactive: -34.4%

Q: Which “activity change, negative = inhibition” value does the source give for `O=C(CN1C(=O)CCn2nc(-c3ccccc3)cc21)NCc1ccccc1` here?
A: inactive: -8.36%

Q: Which “activity change, negative = inhibition” value does the source give for `COc1cccc(C2C(C(=O)Nc3ccccc3OC)=C(C)Nc3nc(-c4ccco4)nn32)c1` (stereo unspecified) here?
A: inactive: -18.8%

Q: With `COc1ccc(-n2nc(C(=O)NCCc3ccc(OC)c(OC)c3)c3c4ccccc4n(C)c3c2=O)cc1` as the compound, how does the “activity change, negative = inhibition” value read?
A: inactive: -7.46%

Q: Which “activity change, negative = inhibition” value does the source give for `CCC(Sc1nnc2c3ccccc3n(CC)c2n1)C(=O)Nc1ccc(NC(C)=O)cc1` (stereo unspecified) here?
A: inactive: -8.77%

Q: Which “activity change, negative = inhibition” value does the source give for `Cc1ccccc1-c1nc(CS(=O)(=O)CC(=O)NCCCc2ccccc2)c(C)o1` here?
A: inactive: -28.8%

Q: With `CCCOc1cccc(C2c3c(oc4ccc(F)cc4c3=O)C(=O)N2CCc2ccc(OC)cc2)c1` (stereo unspecified) as the compound, how does the “activity change, negative = inhibition” value read?
A: inactive: 2.83%

Q: With `COc1ccc(C(=O)NCC(c2ccc(Cl)cc2)N2CCCCC2)cc1` (stereo unspecified) as the compound, how does the “activity change, negative = inhibition” value read?
A: inactive: -14.8%

Q: With `CCC(C(=O)Nc1cc(C(F)(F)F)ccc1Cl)n1nc(C)c2sc3ccccc3c2c1=O` (stereo unspecified) as the compound, how does the “activity change, negative = inhibition” value read?
A: inactive: -9.42%

Q: Which “activity change, negative = inhibition” value does the source give for `COc1ccccc1CNC(=O)Cn1nc(C)n2cccc2c1=O` here?
A: inactive: -3.84%

Q: For `COc1ccccc1CNC(=O)CCn1c(=O)c2ccccc2n(CC(=O)Nc2cc(Cl)ccc2C)c1=O`, which “activity change, negative = inhibition” value is on record?
A: inactive: -10.7%

Q: For `CCc1cccc(NC(=O)CSc2ncc3c(n2)-c2cc(Cl)ccc2N(C)S3(=O)=O)c1`, which “activity change, negative = inhibition” value is on record?
A: inactive: -14.2%

Q: With `Cc1ccc(C2NC(=O)c3n[nH]c(-c4cccs4)c32)cc1` (stereo unspecified) as the compound, how does the “activity change, negative = inhibition” value read?
A: inactive: -15.5%
